Data taken from the RNAGym collection of RNA variant scans (doi:10.7554/elife.90254).
The source gives no read counts; variants with many changes may rest on few reads.

B1: LINE1-full (parent)
chain: UACGUAGGUGGUUUUCCCCUGAUAGUGCUAAGGGGGCCUGGAAGUUUGGACUGGGCAGAGCUCAACACAGCGUGGCAAAGUGGCUGUGGCUAGACUGCCUCUCUGGAUUCCUCGUCACUCAGCAGGGCAUCUCUGAGAGAAAUGCC

Variants of: B1
Assay: self-cleavage, relative activity (ratio to wild type); higher = more cleavage; in vitro, sequencing; the parent is a self-cleaving ribozyme

Variant	self-cleavage
UACGUAGGAGGUUUUCCCCUGAUUGUGCUAAGGGGGCCUGGAAGUUUGGACUGGGCAGAGCUCAACACAGCGUGGCAAAGUGGCUGUGGCUAGACCGCCUCUCUGGAUUCCUCGUCACUCAGCAGGGCAUCUCUGAGAGAAAUGCC [U9A A24U U96C]	0.64
UACGUAGGAGGUUUUCCCCUGAUGGUGCUAAGGGGGCCUGGAAGUUUGGACUGGGCAGAGCUCAACACAGCGUGGCAAAGUGGCUGUGGCUAGACUGCCUCUCUGGAUUCCUCGUCACUCAGCAGGGCAUCUCUGAGAGGAAUGCC [U9A A24G A140G]	0.99
UACGUAGGAGGUUUUCCCCUGAUAGUGCUAAGGGGGCCUGGAGGUUUGGACUGGGCAGAGCUCAACACGGCGUGGCAAAGUGGCUGUGGCUAGACUGCCUCUCUGGAUUCCUCGUCACUCAGCAGGGCACCUCUGAGAGGAAUGCC [U9A A43G A69G U130C A140G]	0
UACGUAGGAGGUUUUCCCCUGAUAGUGCUUAGGGGGCCUGGAGGUUUGGACUGGGCAGAGCUCAACACAGCGUGGCAAAGUGGCUGAGGCUAGACUGCCUCUCUGGAUUCCUCGUCACUCAGCAGGGCAUCUCAGAGAGGAAUGCC [U9A A30U A43G U87A U134A A140G]	0.18
UACGUAGUUGGUUCUCCCCUGAUAGUGCUAAGGGGGCCUGGAAGCUUGGACUGGGCAGAGCUCAACACAGCGUGGCAAAGUGGCUGUGGCUAGACUGCCUCUCUGGAUUCCUCGCCACUCAGCAGGGCAUCUCUGGGAGAAAUGCC [G8U U14C U45C U115C A136G]	2.3
UACGUAGGAGGUUUUCCCCUGAUAGUGCUAAGGGGGCCUGGAGGUUUGGACUGGGCAGAGCUCAACACAGCGUGGCAAAGUGGCUGUGGCUAGACUGCCUCUCUGGAUUCCUCGUCACUCAGCCGGGCAUCUCUGAGAGAAAUGCC [U9A A43G A124C]	0.3
UACGUAGGAGGUUUUCCCCUGAUAGUGCUAAGGGGGCCUGGAGGUUUGGACUGGGCAGAACUCAACACGGCGUGGCAAAGUGGCUGUGGCUAGACUGCCUCUCUAGAUUCCUCGUCACUCAGCAGGGCAUCUCUGAGAGAAAUGCC [U9A A43G G60A A69G G105A]	0.09
UACGUAGGAGGUUUUCCCCUGAUAGUGCUAAGGGGGCCUGGAAGUUUGGACUGGGCGGAACUCAACACAGCGUGGCAAAGUGGCUGUAGCUAGACUGCCUCUCUGGAUUCCUCGUCACUCAGCAGGGCAUCUCUGAGAGAAAUGCC [U9A A57G G60A G88A]	0.09
UACGUAGUUGGUUUUCCCCUGAUAGUGCUAAGGGGGCCUGGAAGUUUGGACUGGGCAGAGCUCAACACAGCGUGGCAAAGUGGCUGUGGCUAGACUGCCUCUCUGGAUUCCUCGUCACUCAGCAGGGCAUCCCUGAGAGGAAUGCC [G8U U132C A140G]	1.69
UACGUAGGAGGUUUUCCCCUGGUAGAGCUAAGGGGGCCUGGAAGUUUGGACUGGGCAGAGCUCAACACAGCGUGGCAAAGUGGCUGUGGCUAGACUGCCUCUCUGGAUUCCUCGUCACUCAGCAGGGCAUCUCUGAGGGAAAUGCC [U9A A22G U26A A138G]	0.81
UACGUAGGAGGUUUUCCCCUGGUAGUGCUAAGGGGGCCUGGAAGUUUGGACUGGGCAGAGCCCAACACAGCGUGGCAAAGUGGCUGUGGCUAGACUGCCUCUCUGGAUUCCUCGUCACUCAGCAGGGCAUCUCUGAGGGAAAUGCC [U9A A22G U62C A138G]	0
UACGUAGUUGGUUUUCCCCUGAUAGUGCUAAGGGGGCCUGGAAGUUUGGACUGGGCAGAGCUCAACACAGCGUGGCAAAGUGGCUGUGGCGAGACUGCCACUCUGGAUUCCUCGUCACUCAGCAGGGCAUCUCUGUGAGAAGUGCC [G8U U91G U100A A136U A142G]	0.09
UACGUAGGAGGUUUUCCCCUGGUAGUGCUAAGGGGGCCUGGAAGUUUGGACUGGGCAGAGCUCAACACAGCGUGGCAAAGUGGCUGUGGCUAGACUGCCUCUCUGGAUUCCUCGUCACUCAGCAGGGCAUCUCUGAGGGAAAUGCC [U9A A22G A138G]	1.04
UACGUAGGAGGUUUUCCCCUGAUAGUGCUAAGGGGGCCUGGAAGUUUGGACUGGGCAGAGCUCAGCACGGCGUGGCAAAGUGGCUGUGGCUAGACUGCCUCUCUGGAUUCCUCGUCACUCAGCAGGGCAUCUCUGAGAGAAAUGCC [U9A A65G A69G]	0
UACGUAGGAGGUUUUCCCCUGAUAGUGCUAAGGGGGCCUGGUAGUUUGGACUGGGCAGAGCUCAACACAGCGUGGCGAAGUGGCUGUGGCUAGACUGCCCCCCUGGAUUCCUCGUCACUCAGCAGGGCAUCUCUGAGAGAAAAGCC [U9A A42U A77G U100C U102C U143A]	0
UACGUAGGAGGUUUUCCCCUGAUAGUGCUAAGGGGGCCUGGGAGUUUGGACUGGGCAGAGCUCAAUACAGCGUGGCAAAGUGGCUGUGGCUAGACUGCCUCUCUGGGUUCCUCGUCACUCAGCAGGGCACCUCUGAGAGAAAUGCC [U9A A42G C66U A107G U130C]	0
UACGUAGGAGGUUUUCCCCUGAUAGUGCUAAGGGGGCCUGGAAGUUUGGACUGGGCAGAGCUCAUCACAGCGUGGCAAAGUGGCUGUGGCUAGACUGCCUCUCUGGAUUCCUCGUCACUCAGCAGGGCAUCUCUGAGAGAAGUGCC [U9A A65U A142G]	0.14
UACGUAGUUGGUCCUCCCCUGAUGGUGCUAAGGGGGCCUGGAAGUUUGGACUGGGCAGAGCUCAACACAGCGUGGCAAAGUGGCUGUGGCUAGACAACCUCUCUGGAUUCCUCGUCACUCAGCAGGGCAUCUCUGAGAGAAAUGCC [G8U U13C U14C A24G U96A G97A]	0.27
UACGUAGGAGGUUUUCCCCUGAUAGUGCUGAGGGGGCCUGGAAGUUUGGACUGGGCAGAGCUCAACACAGCGUGGCUAAGUGGCUGUGGCUAGACUGCCUCUCUGGAUUCCUCGUCACUCAGCAGGGCAUCUCUGAGAGAAAUGCC [U9A A30G A77U]	0.59
UACGUAGGAGGUUUUCCCCUGAUAGUGCUAAGGGGGCCUGGAAGUUUGGACUGGGCAGAGCUCAGCACAGCGUGGCAAAGUGGCUGUGGCUAGACUGCCUCUCUGGAUUCCUCGUCACUCAGCGGGGCACCUCUGAGAGAAAUGCC [U9A A65G A124G U130C]	0.51

Variant	self-cleavage
UACGUAGGAGGUUUUCCCCUGAUAGUGCUAAGGGGGCCUGGAAGUUUGGACUGGGCAGAGCUCAACGCAGCGUGGCAAAGUGGCUGUGGCUGGACUGCCUCUCUGGAUUCCACGUCACUCAGCAGGGCAUCUCUGAGAGUAAUGCC [U9A A67G A92G U112A A140U]	0.32
UACGUAGGAGGUUUUCCCCUGAUAGUGCUAGGGGGGCCUGGAAGUUUGGACUGGGCAGAGCUCACCACAGCGUGGCAAAGUGGCUGUGGCUAGACUGCCUCUCUGGAUUCCUCGUCACUCAGCAGGGCAUCUCAGAGAGAAAUGCC [U9A A31G A65C U134A]	0.27
UACGUAGGAGGUUUUCCCCUGAUAGUGCUAAGGGGGCCUGGAAGUUUGGACUGGGCAGAGCUCAGCACAGCGUGUCAAAGAGGCUGUGUCUAGACUGCCUCUCUGGAUUCCUCGUCACUCAGCAGGGCAUCUCUGAGAGAAAUGCC [U9A A65G G75U U81A G89U]	0.03
UACGUAGUUGGUUUUCCCCUGAUAGUGCUAAGGGGGCCUGGAAGUUCGGACUGGGCAGAGCUCAACACAGCGUGGCAAAGUGGCUGUGGCUAGACUGCCUCUCUGGAUUCCUCGUCACUCAGCAGGGCAUCCCUGAGAGAAAUGCC [G8U U47C U132C]	0.98
UACGUAGUUGGUUUUCCCCUGAUAGUGCUAAGGGGGCCUGGAAGUUUGGACUGGGCAAAGCUCAACACAGCGUGGCAAAGUGGCUGAGGCUAGACUGCCUCUCUGGAUUCCUCGUCACUCAGCAGGGCAUCUCUGAGAGAAAUGCC [G8U G58A U87A]	0.08
UACGUAGGAGGUUUUCCCCUGAUAGUGCUAAGGGGGCCUGGAAGUUUGGACUGGGCAGAGCUCAUCACAGCGUGGCAAAGUGGCUGUGGCUAGACUGCCUCUCUGGAUUCCUUGUCACUCAGCAGGGCAUCUCUGAGAGAAAUGCC [U9A A65U C113U]	0.17
UACGUAGGAGGUUUUCCCCUGAUAGUGCUAAGGGGGCCUGGAAGUUUGGACUGGGCAGGGCUCAUCACAGCGUGGCAAAGUGGCUGUGGCUAGACUGCCUCUCUGGAUCCCUCGUCACUCAGCAGGGCAUCUCUGAGAGAAAUGCC [U9A A59G A65U U109C]	0.16
UACGUAGGAGGUUUUCCCCUGAUAGUGCUAAGGGGGCCUGGAAGUUUGGACUGGGCAGAGCUCAACGCAGCGUGGCAAAGUGGCUGUGGCUAGACUGCCUCUCUGGAUUCCUUGUCACUCAGCAGGGCAUCUCUGAGAGAAAUGCC [U9A A67G C113U]	0.4
UACGUAGGAGGUUUUCCCCUGGUAGUGCUAAGGGGGCCUGGAAGUUUGGACUGGGCAGAGCUCAACACAGCGAGGCAAGGUGGCUGUGGCUGGACUGCCUCUCUGGAUUCCUCGUCACUCAGCAGGGCAUCUCUGAGAGAAAUGCC [U9A A22G U73A A79G A92G]	0.48
UACGUAGGAGGUUUUCCCCUGAUAGUGCUGGGGGGGCCUGGAAGAUUGGACUGGGCAGAGCUCAAAACAGCGUGGCAGAGUGGCUGUGGCUAGACUGCCUCUCUGGAUUCCUCGUCACUCAGCAGGGCAUCUCUGAGAGAAAUGCC [U9A A30G A31G U45A C66A A78G]	0
UACGUAGGAGGUUUUCCCCUGGUGGUGCUAAGGGGGCCUGGAAGUUUGGACUGGGCAGAGCUCAACACAGCGUGGCAAAGUGGCUGUGGCUAGACUGCCUCUCUGGAUUCCUCGUCACUCAGCAGGGCAUCCCUGAGAGCAAUGCC [U9A A22G A24G U132C A140C]	0.62
UACGUAGGAGGUUUUCCCCUGAUAGUGCUAAGGGGGCCUGGGAGUAUGGACUGGGCAGAGCUCAACACAGCGUGGCAAAGUGGCUGUGGCUAGACUGCCUCUCUGGAUUCCACGACACUCAGCAGGGCAUCUCUGAGAGAAAUGCC [U9A A42G U46A U112A U115A]	1.53
UACGUAGGAGGUUUUCCCCUGAUAGUGCUAAGGGGGCCUGGGAGUUUGGACUGGGCAGAGCUCAACACAGCGUGGCAAAGUGGCUGUGGCUAGACUGCCUCACUGGAUUCCUCGUCACUCAGCAGGGCAUCUCUGAGAGGAAUGCC [U9A A42G U102A A140G]	1.06
UACGUAGGAGGUUUUCCCCUGAUAGUGCUAAGGGGGCCUGGAAGUUUGGACUGGGCAGAGCUCUACACAGCGUGGCUAAGUGGCUGUGGCUAGACUGCCUCUCUGGAUUCCUCGUCACUCAGCAGGGCAUCUCUGAGAGAAAUGCC [U9A A64U A77U]	0.93
UACGUAGGAGGUUUUCCCCUGAUAGUGCUAAGGGGGCCUGGAAGUUUGGACUGGGCAGAGCUCGACACAGCGUGGCAAUGUGGCUGUGGCUAGACUGCCUCUCUGGAUUCCUCGCCACUCAGCAGGGCAUCUCUGAGAGAAAUGCC [U9A A64G A79U U115C]	0.92
UACGUAGGAGGUUUUCCCCUGAUAGUGCUAAGGGGGCCUGGGAGUUUGGACUGGGCAGAGCUCAACACAGCGCGGCAAAGUGGCUGUGGCUAGACUGCCUCUCUGGAUUCCUCGUCACUCAGCAGGGCAUCUCUGAGAGAAAUGCC [U9A A42G U73C]	1.39
UACGUAGGAGGUUUUCCCCUGAUAGUGCUAAGGGGGCCUGGGAGUUUGGACUGGGCAGAGCUCAACACAGCGUGGCAAAGUGGCUGUGGCUAGACUGCCUCUCUGGAUUCCUCGACACUCAGCAGGGCAUCUCUGUGAGGAAUGCC [U9A A42G U115A A136U A140G]	2.02
UACGUAGGAGGUUUUCCCCUGAUAGUGCUGAGGGGGCCUGGAAGUUUGGACUGGGCAGAGCUCAACACAGCGUGGCAAAGUGGCUGUGGCUAGACUGCCUCUCUGGAUUCCUCGUCACUCAGCAGGGCAUCUCUGAGAGGAAUGCC [U9A A30G A140G]	1
UACGUAGGAGGUUUUCCCCUGAUAGUGCUAAGGGGGCCUGGAAGUUUGGACUGGGCGGGGCUCAACACAGCGUGGCAAAGUGGCUGUGGCUAGACUGCCUCUCUGGAUUCCUCGACACUCAGCAGGGCAUCUCUGAGAGAAAUGCC [U9A A57G A59G U115A]	0
